# Experimental data as given in PubChem BioAssay AID504466 (National Center for Advancing Translational Sciences (NCATS), 2011).
# In all, about 330,000 compounds went through this assay and about 4,200 (1.3%) were called active. Inconclusive results, whose numbers are uncertain, are shown with a selection of clear calls. The call rests on the fitted dose curve; in most records, active means well fitted activation curve with a large enough effect; inconclusive means small, poorly fitted or top-dose-only effect; inactive means no such curve, though single readings can be large or run the other way. A potency beside an inconclusive call is a rough fit, not a confirmed value.
# Assay: qHTS screen for small molecules that induce genotoxicity in human embryonic kidney (HEK293T) cells expressing luciferase-tagged ELG1; further: nearly all actives have a fitted effect of over 60% in size; on activity change, positive = activation: % of control where 0% means no effect
# Conditions: HEK293T ELG1-luciferase reporter, luminescence, 16 h; series mostly up to 46 µM; activity change, positive = activation: at the top concentration
# Summary of the method: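 HEK293T cells expressing luciferase-tagged ELG1 were treated with compound or DMSO for 16 hr at 37°C. Luciferase activity was then read after 30 min with ONE-Glo at room temperature; rising signal flags genetic stress.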
# Potency means the concentration at half of the fitted maximal effect; tags describe the fitted curve by direction and shape.
SMILES,"activity change, positive = activation",Potency
Cc1ccc(Cl)cc1Nc1nc(-c2cccnc2)cs1,inactive: -2.79%,–
Cc1ccnc2nc(C(=O)Nc3nnc(-c4ccccc4)o3)nn12,–,"inconclusive: 14.6 µM [activator, single point]"
Cc1ccc(Nc2nc(-c3sc(N)nc3C)cs2)cc1,–,"inconclusive: 18.3 µM [activator, partial curve, poor fit]"
O=C(CNC(=O)c1sc2ccccc2c1Cl)OCc1ccccc1,inactive: 4.47%,–
COc1ccc(-n2nnnc2SCC(=O)Nc2nnc(C)s2)cc1OC,–,"inconclusive: 18.4 µM [activator, single point]"
CCc1ccc2[nH]c(=O)c(CN(CCCO)C(=O)NCc3ccccc3)cc2c1,inactive: -2.46%,–
CCOc1ncccc1C(=O)NCCCSc1ccccc1,inactive: -0.15%,–
COC(=O)c1c(C)[nH]c(C=O)c1-c1ccccc1,–,"inconclusive: 14.6 µM [activator, partial curve, poor fit]"
CCOc1ccc(NC(c2ccccn2)c2oc(CO)cc(=O)c2O)cc1 (stereo not drawn),–,"inconclusive: 16.4 µM [activator, partial curve]"
Cc1ccc(OCCOc2cccc(Br)c2)c([N+](=O)[O-])n1,–,"inconclusive: 13 µM [activator, partial curve]"
O=C1C2C3C=CC(CC3)C2C(=O)N1c1ccc(Cl)cc1Cl (stereo not drawn),inactive: -4.22%,–
O=C(c1ccc(F)cc1)c1cnc(Nc2ccccc2)s1,–,"inconclusive: 2.31 µM [activator, partial curve]"
O=C(Nc1ccc2nc(-c3ccccc3)oc2c1)c1ccco1,–,"inconclusive: 8.2 µM [activator, partial curve, poor fit]"
Cc1ccc2nc(COc3ccc(Cl)cc3)cc(=O)n2c1,inactive: 23.1%,–
Cc1ccc(NC(=O)Nc2ccc3c(c2)CCC3)c(C)c1,inactive: 8.27%,–
CC(C)(C)NC(=O)CN1CCCN(C(=O)c2cccc(S(=O)(=O)N3CCc4ccccc43)c2)CC1,inactive: -0.55%,–
Cc1ccc(CC(=O)Nc2ccccc2N2CCOCC2)cc1C,inactive: -9.13%,–
CC1(C)CC(NCCC(c2ccccc2)c2ccco2)CCO1 (stereo not drawn),inactive: 0.128%,–
O=C(N/N=C\c1cccc(Cl)c1)c1n[nH]c2c1CCCC2,–,"inconclusive: 4.11 µM [activator, full curve]"
Cc1cc(/C=C2\SC(=S)N(Cc3ccco3)C2=O)c(C)n1-c1ccccc1,–,active: 5.17 µM
CS(=O)(=O)Nc1ccc(Cc2ccc(NS(C)(=O)=O)cc2)cc1,inactive: 1.12%,–
O=C(CCS(=O)(=O)c1ccccc1)N1CCN(c2ccccc2)CC1,–,"inconclusive: 9.2 µM [activator, partial curve]"
CCc1nc2oc3ccccc3c(=O)c2c(=O)n1CCOC,inactive: 1.6%,–
